Experimental data from PubChem BioAssay AID504333 (National Center for Advancing Translational Sciences (NCATS), 2011).
Hit rate of the full screen: of about 360,000 compounds, about 16,000 (4.4%) were called active. The shares of active, inactive and inconclusive entries below differ from those in the screen. Calls follow the shape of the dose curve; as a rule, active = well fitted inhibition curve with a large enough effect; inconclusive = small, poorly fitted or top-dose-only effect; inactive = no such curve, though single readings can be large or run the other way. Potencies beside an inconclusive call are fits to weak or partial responses and may not hold up.

molecular target: Bromodomain adjacent to zinc finger domain protein 2B (Homo sapiens) (UniProt Q9UIF8); assay: qHTS Assay for Inhibitors of BAZ2B; conditions: AlphaScreen BAZ2B-H3K14Ac peptide displacement; activity change, negative = inhibition: at 114 µM (top of the series) unless noted; also: nearly all actives have a fitted effect of over 60% in size
UniProt Q9UIF8, sequence (Q9UIF8 whole entry, looked up, the tested form may be a part): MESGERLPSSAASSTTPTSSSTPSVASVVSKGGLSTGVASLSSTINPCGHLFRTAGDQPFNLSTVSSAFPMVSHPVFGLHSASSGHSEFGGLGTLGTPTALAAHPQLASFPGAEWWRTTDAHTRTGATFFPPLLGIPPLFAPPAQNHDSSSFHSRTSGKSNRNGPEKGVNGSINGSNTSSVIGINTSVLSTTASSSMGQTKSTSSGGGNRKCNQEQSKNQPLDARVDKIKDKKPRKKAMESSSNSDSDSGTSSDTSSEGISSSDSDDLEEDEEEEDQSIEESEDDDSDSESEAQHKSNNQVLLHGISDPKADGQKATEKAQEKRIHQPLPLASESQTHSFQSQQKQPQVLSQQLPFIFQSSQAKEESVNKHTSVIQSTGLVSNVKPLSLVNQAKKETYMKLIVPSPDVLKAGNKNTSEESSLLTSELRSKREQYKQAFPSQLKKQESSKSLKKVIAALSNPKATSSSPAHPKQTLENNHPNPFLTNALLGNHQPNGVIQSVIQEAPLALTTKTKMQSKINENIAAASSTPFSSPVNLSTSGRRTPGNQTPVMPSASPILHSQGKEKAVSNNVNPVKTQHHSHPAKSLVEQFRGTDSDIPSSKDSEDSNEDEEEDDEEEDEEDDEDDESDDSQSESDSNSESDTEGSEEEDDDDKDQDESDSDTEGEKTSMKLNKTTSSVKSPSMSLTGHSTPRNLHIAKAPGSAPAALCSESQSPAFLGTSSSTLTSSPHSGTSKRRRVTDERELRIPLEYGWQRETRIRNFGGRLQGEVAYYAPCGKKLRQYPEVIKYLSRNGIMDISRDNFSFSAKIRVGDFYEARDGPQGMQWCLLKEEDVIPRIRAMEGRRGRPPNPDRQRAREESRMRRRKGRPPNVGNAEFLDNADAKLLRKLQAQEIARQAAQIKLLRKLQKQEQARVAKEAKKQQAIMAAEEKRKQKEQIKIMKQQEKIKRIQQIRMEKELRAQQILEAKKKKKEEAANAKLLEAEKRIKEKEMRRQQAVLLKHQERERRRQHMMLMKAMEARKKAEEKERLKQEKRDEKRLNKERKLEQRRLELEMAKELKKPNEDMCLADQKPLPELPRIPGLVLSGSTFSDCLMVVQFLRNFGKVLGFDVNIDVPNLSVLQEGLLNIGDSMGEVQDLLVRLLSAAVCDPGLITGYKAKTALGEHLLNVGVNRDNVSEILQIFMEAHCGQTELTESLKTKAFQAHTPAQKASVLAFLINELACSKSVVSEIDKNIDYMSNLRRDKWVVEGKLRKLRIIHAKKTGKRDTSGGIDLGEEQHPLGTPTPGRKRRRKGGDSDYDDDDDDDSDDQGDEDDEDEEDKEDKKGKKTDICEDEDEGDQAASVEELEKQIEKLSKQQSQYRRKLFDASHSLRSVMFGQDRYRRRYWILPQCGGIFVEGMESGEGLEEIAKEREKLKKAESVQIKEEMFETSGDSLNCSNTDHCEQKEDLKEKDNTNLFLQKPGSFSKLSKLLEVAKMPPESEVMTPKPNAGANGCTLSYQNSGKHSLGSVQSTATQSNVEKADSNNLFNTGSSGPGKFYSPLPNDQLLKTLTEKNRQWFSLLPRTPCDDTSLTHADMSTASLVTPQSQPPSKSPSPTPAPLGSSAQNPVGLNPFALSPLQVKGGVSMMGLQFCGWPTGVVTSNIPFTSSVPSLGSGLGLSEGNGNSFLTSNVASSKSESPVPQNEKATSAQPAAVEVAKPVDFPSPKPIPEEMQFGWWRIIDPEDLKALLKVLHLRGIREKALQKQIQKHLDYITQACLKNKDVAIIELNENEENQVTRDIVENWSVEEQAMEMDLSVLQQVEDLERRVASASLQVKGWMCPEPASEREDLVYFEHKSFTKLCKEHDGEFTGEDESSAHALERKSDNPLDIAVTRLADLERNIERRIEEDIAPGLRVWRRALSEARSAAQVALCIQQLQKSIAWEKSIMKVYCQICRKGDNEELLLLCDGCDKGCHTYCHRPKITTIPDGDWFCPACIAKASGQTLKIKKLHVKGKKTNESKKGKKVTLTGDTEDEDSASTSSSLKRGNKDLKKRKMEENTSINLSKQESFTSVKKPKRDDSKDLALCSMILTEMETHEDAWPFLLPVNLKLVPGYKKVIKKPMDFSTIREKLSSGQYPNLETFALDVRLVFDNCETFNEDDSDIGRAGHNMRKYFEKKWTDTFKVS
Summary of the method: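 Complex of BAZ2B and biotin-H3K14Ac (50 nM apiece) forms over 30 min at RT, then faces library compounds up to 110 uM for another 30 min; AlphaScreen beads added, 20 min dark incubation, luminescence read.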
% is scaled to controls: 0 for no effect and ±100 for the full control effect; potency is read from the fitted curve at half-maximal effect; tags tell the direction and shape of the fitted curve.

Q: With `CCCC(C)C(=O)Nc1nc(C)c(-c2csc(Nc3ccc(Cl)cc3)n2)s1` (centres undefined) as the molecule, how does the Potency read?
A: inconclusive: 44.7 µM [inhibitor, partial curve]

Q: With `O=[N+]([O-])c1cc(Cl)cc(/C=N\Nc2ccccn2)c1O` as the molecule, how does the Potency read?
A: active: 4.47 µM

Q: For `Cc1ccc(NC(=O)CSCC(=O)N(C)CCOc2ccc(Cl)cc2)cc1`, which “activity change, negative = inhibition” value is on record?
A: inactive: 6.31%

Q: For `COC(=O)C1C(O)CCC2CN3CCc4c([nH]c5ccccc45)C3CC21` (centres undefined), which Potency is on record?
A: inconclusive: 79.4 µM [inhibitor, single point]

Q: With `CCOc1ccc(N(CC(=O)Nc2ccccc2C(=O)NCc2ccco2)S(C)(=O)=O)cc1` as the molecule, how does the Potency read?
A: inconclusive: 89.1 µM [inhibitor, single point]

Q: Which “activity change, negative = inhibition” value does the source give for `NC(=O)CC(NC(=O)c1ccccc1)c1ccc(NCc2ccccc2)c([N+](=O)[O-])c1` (centres undefined) here?
A: inactive: -19.4%

Q: How did the Potency turn out when `N/C(=N\OC(=O)c1ccco1)c1cccc([N+](=O)[O-])c1` was run?
A: inconclusive: 89.1 µM [inhibitor, single point]

Q: With `CCOC(=O)c1c(C)[nH]c(C)c1C(=O)CSc1nnnn1-c1ccccc1` as the molecule, how does the Potency read?
A: inconclusive: 89.1 µM [inhibitor, single point]

Q: Which Potency does the source give for `Cc1ccc(C)n1-n1cnc2scc(-c3cccs3)c2c1=O` here?
A: inconclusive: 89.1 µM [inhibitor, single point]

Q: `OCCN(CCO)Cc1ccc(Br)cc1` was tested. Which Potency did it give?
A: active: 50.1 µM

Q: How did the Potency turn out when `CCOc1ccccc1CNC(CC)CO` (centres undefined) was run?
A: inconclusive: 89.1 µM [inhibitor, single point]

Q: With `CCOC(=O)c1ccc(N2CSC3=C(C#N)C(c4ccc(OC)cc4OC)CC(=O)N3C2)cc1` (centres undefined) as the molecule, how does the Potency read?
A: active: 50.1 µM

Q: With `Cn1c(=O)c2sccc2n2c(CCC(=O)N3CCN(c4cccc(Cl)c4)CC3)nnc12` as the molecule, how does the “activity change, negative = inhibition” value read?
A: inactive: 1.62%

Q: For `COc1ccc(N2CCN(C(=O)c3ccccc3NS(=O)(=O)c3ccc(C)cc3)CC2)cc1`, which Potency is on record?
A: inconclusive: 39.8 µM [inhibitor, partial curve]

Q: For `CC1=NN(c2ccc(Cl)cc2)C(=O)C1C(c1ccccc1O)c1c(C)[nH]n(-c2ccc(Cl)cc2)c1=O` (centres undefined), which Potency is on record?
A: active: 35.5 µM

Q: With `O=S(=O)(Nc1ccc2c(c1)OCCO2)c1cccc2cccnc12` as the molecule, how does the Potency read?
A: inconclusive: 89.1 µM [inhibitor, single point]

Q: For `NS(=O)(=O)c1ccc(CNS(=O)(=O)c2ccc(Cl)nc2)cc1`, which “activity change, negative = inhibition” value is on record?
A: inactive: -4.79%

Q: For `Cc1cc(C(=O)COC(=O)CNC(=O)c2ccco2)c(C)n1Cc1ccco1`, which Potency is on record?
A: inconclusive: 50.1 µM [inhibitor, partial curve]

Q: With `Cn1c(=O)c2c(nc(SCC(=O)O)n2Cc2cc3c(cc2Cl)OCO3)n(C)c1=O` as the molecule, how does the Potency read?
A: inconclusive: 89.1 µM [inhibitor, single point]
